Among the data in patent US9975943B2, “Polypeptides” (AFFIBODY AB, priority 2013, dated 2018) are Kd values, retold here.

The Kd is the concentration at which binding is half-saturated.

Like-named read-outs stand apart in the source and are kept apart here.

For the experiment, the target named is human FcRn (Homo sapiens, UniProt P55899). In words: ELISA KD titration analysis of Z-ABD variants from the maturation. It counts as binding. More on the design: purchased Biorbyt orb84388. Particulars: Z-ABD variants in periplasm. As to the method:
A selection of FcRn binders was subjected to an analysis of the response against a dilution series of biotinylated human FcRn using ELISA at both pH 6.0 and pH 7.4 as described above. […] As a background control, all Z variants were also assayed with no target protein added. […] Periplasm containing the ABD moiety only was used as a negative control. Data were analyzed using GraphPad Prism 5 and non-linear regression and KD values (the half maximal effective concentration) were calculated.
A general note: ELISA stands for enzyme-linked immunosorbent assay.

human FcRn, sequence (P55899 24-297 limits assumed): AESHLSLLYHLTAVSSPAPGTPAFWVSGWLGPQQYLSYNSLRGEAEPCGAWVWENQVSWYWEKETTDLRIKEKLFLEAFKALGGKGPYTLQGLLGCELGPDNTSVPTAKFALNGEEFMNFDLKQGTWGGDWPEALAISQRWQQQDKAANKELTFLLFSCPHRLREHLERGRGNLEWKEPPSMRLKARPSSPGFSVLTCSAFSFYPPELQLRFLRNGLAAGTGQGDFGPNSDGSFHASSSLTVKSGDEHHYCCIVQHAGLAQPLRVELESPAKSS
human FcRn, sequence (P61769 21-119 partner): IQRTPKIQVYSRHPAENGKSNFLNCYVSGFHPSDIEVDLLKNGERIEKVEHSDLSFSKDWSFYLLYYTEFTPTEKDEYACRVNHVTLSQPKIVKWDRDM

As to “Z13598: FcRn binding Z variant from the maturated library (VDAKYAKELEKAAHEIRWLPNLTFDQRVAFIHKLRDDPSQSSELLSEAKKLNDSQAPK; Engineered FcRn binding polypeptide)”, the Kd came to 1.1 nM (pH 6.0, read-out: KD pH 6.0) and 1.7 nM (pH 7.4, read-out: KD pH 7.4).

As to “Z13627: FcRn binding Z variant from the maturated library (VDAKYAKELMEAAHEIRWLPNLTFDQRVAFIHKLRDDPSQSSELLSEAKKLNDSQAPK; Engineered FcRn binding polypeptide)”, the Kd was 1.2 nM (pH 6.0, read-out: KD pH 6.0) and 2.9 nM (pH 7.4, read-out: KD pH 7.4).

Take “Z13750: FcRn binding Z variant from the maturated library (VDAKYAKEQDSAAHEIRWLPNLTFDQRVAFIRKLRDDPSQSSELLSEAKKLNDSQAPK; Engineered FcRn binding polypeptide)”: the Kd is, setting by setting: (pH 6.0, read-out: KD pH 6.0) 2.7 nM; (pH 7.4, read-out: KD pH 7.4) 8.4 nM.

For “Z13845: FcRn binding Z variant from the maturated library (VDAKYAKENDDAAHEIRWLPNLTFDQRVAFIHKLRDDPSQSSELLSEAKKLNDSQAPK; Engineered FcRn binding polypeptide)”, the Kd is 2.6 nM (pH 6.0, read-out: KD pH 6.0) and 4.2 nM (pH 7.4, read-out: KD pH 7.4).

As for “Z13823: FcRn binding Z variant from the maturated library (VDAKYAKEHDDAAHEIRWLPNLTFDQRVAFIHKLRDDPSQSSELLSEAKKLNDSQAPK; Engineered FcRn binding polypeptide)”, the Kd (pH 6.0, read-out: KD pH 6.0) is 2.9 nM and the Kd (pH 7.4, read-out: KD pH 7.4) is 3.8 nM.

On to “Z13638: FcRn binding Z variant from the maturated library (VDAKYAKEFNFAAHEIRWLPNLTFDQRVAFIHKLRDDPSQSSELLSEAKKLNDSQAPK; Engineered FcRn binding polypeptide)”, for which the Kd (pH 6.0, read-out: KD pH 6.0) worked out at 1.2 nM and the Kd (pH 7.4, read-out: KD pH 7.4) is 2.9 nM.

Regarding “Z13846: FcRn binding Z variant from the maturated library (VDAKYAKESEIAGHEIRWLPNLTFDQRVAFIRKLRDDPSQSSELLSEAKKLNDSQAPK; Engineered FcRn binding polypeptide)”, the Kd is 2.3 nM (pH 6.0, read-out: KD pH 6.0) and 4.3 nM (pH 7.4, read-out: KD pH 7.4).

For “Z13749: FcRn binding Z variant from the maturated library (VDAKYAKELQTASHEIRWLPNLTFDQRVAFIHKLRDDPSQSSELLSEAKKLNDSQAPK; Engineered FcRn binding polypeptide)”, the Kd runs as follows: (pH 6.0, read-out: KD pH 6.0) 2.8 nM; (pH 7.4, read-out: KD pH 7.4) 12 nM.

In the case of “Z13587: FcRn binding Z variant from the maturated library (VDAKYAKEHVDAAHEIRWLPNLTFDQRVAFIHKLRDDPSQSSELLSEAKKLNDSQAPK; Engineered FcRn binding polypeptide)”, the Kd by setting is: (pH 6.0, read-out: KD pH 6.0) 1.4 nM; (pH 7.4, read-out: KD pH 7.4) 6.9 nM.

In the case of “Z13799: FcRn binding Z variant from the maturated library (VDAKYAKESELAAHEIRWLPNLTFDQRVAFIWKLRDDPSQSSELLSEAKKLNDSQAPK; Engineered FcRn binding polypeptide)”, the Kd runs as follows: (pH 6.0, read-out: KD pH 6.0) 1.9 nM; (pH 7.4, read-out: KD pH 7.4) 5.6 nM.

Turning to “Z13796: FcRn binding Z variant from the maturated library (VDAKYAKERAEAAHEIRWLPNLTFDQRVAFIHKLRDDPSQSSELLSEAKKLNDSQAPK; Engineered FcRn binding polypeptide)”, the Kd runs as follows: (pH 6.0, read-out: KD pH 6.0) 2.3 nM; (pH 7.4, read-out: KD pH 7.4) 4.2 nM.

Take “Z13758: FcRn binding Z variant from the maturated library (VDAKYAKEVQEAAHEIRWLPNLTFDQRVAFIHKLWDDPSQSSELLSEAKKLNDSQAPK; Engineered FcRn binding polypeptide)”: the Kd was determined as 1.9 nM (pH 6.0, read-out: KD pH 6.0) and 6.5 nM (pH 7.4, read-out: KD pH 7.4).

In the case of “Z13747: FcRn binding Z variant from the maturated library (VDAKYAKEIEEAGHEIRWLPNLTFDQRVAFIHKLRDDPSQSSELLSEAKKLNDSQAPK; Engineered FcRn binding polypeptide)”, the Kd by setting is: (pH 6.0, read-out: KD pH 6.0) 1.3 nM; (pH 7.4, read-out: KD pH 7.4) 2.3 nM.

“Z13594: FcRn binding Z variant from the maturated library (VDAKYAKEIDEAKHEIRWLPNLTFDQRVAFIHKLDDDPSQSSELLSEAKKLNDSQAPK; Engineered FcRn binding polypeptide)”: the Kd (pH 6.0, read-out: KD pH 6.0) came out at 1.3 nM and the Kd (pH 7.4, read-out: KD pH 7.4) stood at 6.3 nM.

Turning to “Z13624: FcRn binding Z variant from the maturated library (VDAKYAKESKQAAHEIRWLPNLTFDQRVAFIHKLRDDPSQSSELLSEAKKLNDSQAPK; Engineered FcRn binding polypeptide)”, the Kd reads like this: (pH 6.0, read-out: KD pH 6.0) 1.3 nM; (pH 7.4, read-out: KD pH 7.4) 3.4 nM.

In the case of “Z13609: FcRn binding Z variant from the maturated library (VDAKYAKEWKVAAHEIRWLPNLTFDQRVAFIHKLRDDPSQSSELLSEAKKLNDSQAPK; Engineered FcRn binding polypeptide)”, the Kd was 1.3 nM (pH 6.0, read-out: KD pH 6.0) and 2.7 nM (pH 7.4, read-out: KD pH 7.4).

As for “Z13597: FcRn binding Z variant from the maturated library (VDAKYAKELQSAAHEIRWLPNLTFDQRVAFIHKLKDDPSQSSELLSEAKKLNDSQAPK; Engineered FcRn binding polypeptide)”, the Kd turned out to be 1.4 nM (pH 6.0, read-out: KD pH 6.0) and 6 nM (pH 7.4, read-out: KD pH 7.4).

For “Z13613: FcRn binding Z variant from the maturated library (VDAKYAKELEAARHEIRWLPNLTFDQRVAFIHKLNDDPSQSSELLSEAKKLNDSQAPK; Engineered FcRn binding polypeptide)”, the dissociation constant (Kd) by setting is: (pH 6.0, read-out: KD pH 6.0) 1.2 nM; (pH 7.4, read-out: KD pH 7.4) 4.3 nM.

Consider “Z13842: FcRn binding Z variant from the maturated library (VDAKYAKEISQAAHEIRWLPNLTFDQRVAFIHKLRDDPSQSSELLSEAKKLNDSQAPK; Engineered FcRn binding polypeptide)”, for which the Kd is, setting by setting: (pH 6.0, read-out: KD pH 6.0) 2.2 nM; (pH 7.4, read-out: KD pH 7.4) 5.5 nM.

Take “Z13742: FcRn binding Z variant from the maturated library (VDAKYAKELSTAAHEIRWLPNLTFDQRVAFIHKLRDDPSQSSELLSEAKKLNDSQAPK; Engineered FcRn binding polypeptide)”: the Kd is 2.4 nM (pH 6.0, read-out: KD pH 6.0) and 7.6 nM (pH 7.4, read-out: KD pH 7.4).

Consider “Z13574: FcRn binding Z variant from the maturated library (VDAKYAKEKKEAAHEIRWLPNLTFDQRVAFIHKLRDDPSQSSELLSEAKKLNDSQAPK; Engineered FcRn binding polypeptide)”, for which the Kd by setting is: (pH 6.0, read-out: KD pH 6.0) 1.2 nM; (pH 7.4, read-out: KD pH 7.4) 5 nM.

“Z13751: FcRn binding Z variant from the maturated library (VDAKYAKESASAGHEIRWLPNLTFDQRVAFIHKLRDDPSQSSELLSEAKKLNDSQAPK; Engineered FcRn binding polypeptide)”: the Kd is 2 nM (pH 6.0, read-out: KD pH 6.0) and 3.8 nM (pH 7.4, read-out: KD pH 7.4).

“Z13617: FcRn binding Z variant from the maturated library (VDAKYAKEADQAGHEIRWLPNLTFDQRVAFIRKLRDDPSQSSELLSEAKKLNDSQAPK; Engineered FcRn binding polypeptide)”: the Kd by setting is: (pH 6.0, read-out: KD pH 6.0) 1.2 nM; (pH 7.4, read-out: KD pH 7.4) 1.9 nM.

Take “Z13866: FcRn binding Z variant from the maturated library (VDAKYAKEWLDAAHEIRWLPNLTFDQRVAFIHKLRDDPSQSSELLSEAKKLNDSQAPK; Engineered FcRn binding polypeptide)”: the Kd turned out to be 2 nM (pH 6.0, read-out: KD pH 6.0) and 2.8 nM (pH 7.4, read-out: KD pH 7.4).

On to “Z13579: FcRn binding Z variant from the maturated library (VDAKYAKEISAASHEIRWLPNLTFDQRVAFIHKLRDDPSQSSELLSEAKKLNDSQAPK; Engineered FcRn binding polypeptide)”, for which the Kd (pH 6.0, read-out: KD pH 6.0) was found to be 1.2 nM and the Kd (pH 7.4, read-out: KD pH 7.4) worked out at 5.3 nM.

Consider “Z13611: FcRn binding Z variant from the maturated library (VDAKYAKEWKAAAHEIRWLPNLTFDQRVAFIHKLRDDPSQSSELLSEAKKLNDSQAPK; Engineered FcRn binding polypeptide)”, for which the Kd by setting is: (pH 6.0, read-out: KD pH 6.0) 1.3 nM; (pH 7.4, read-out: KD pH 7.4) 2.5 nM.

Regarding “Z13634: FcRn binding Z variant from the maturated library (VDAKYAKEWYNAAHEIRWLPNLTFDQRVAFIHKLRDDPSQSSELLSEAKKLNDSQAPK; Engineered FcRn binding polypeptide)”, the Kd is, setting by setting: (pH 6.0, read-out: KD pH 6.0) 1.1 nM; (pH 7.4, read-out: KD pH 7.4) 2.3 nM.

Turning to “Z13838: FcRn binding Z variant from the maturated library (VDAKYAKEISDAAHEIRWLPNLTFDQRVAFIHKLRDDPSQSSELLSEAKKLNDSQAPK; Engineered FcRn binding polypeptide)”, the Kd was 2.6 nM (pH 6.0, read-out: KD pH 6.0) and 5.4 nM (pH 7.4, read-out: KD pH 7.4).

“Z13792: FcRn binding Z variant from the maturated library (VDAKYAKEIEVAAHEIRWLPNLTFDQRVAFIHKLRDDPSQSSELLSEAKKLNDSQAPK; Engineered FcRn binding polypeptide)”: the Kd is, setting by setting: (pH 6.0, read-out: KD pH 6.0) 2 nM; (pH 7.4, read-out: KD pH 7.4) 2.9 nM.

In the case of “Z13808: FcRn binding Z variant from the maturated library (VDAKYAKETANAAHEIRWLPNLTFDQRVAFIHKLRDDPSQSSELLSEAKKLNDSQAPK; Engineered FcRn binding polypeptide)”, the Kd (pH 6.0, read-out: KD pH 6.0) is 2.4 nM and the Kd (pH 7.4, read-out: KD pH 7.4) worked out at 5.5 nM.

Turning to “Z13875: FcRn binding Z variant from the maturated library (VDAKYAKENAAAAHEIRWLPNLTFDQRVAFIHKLRDDPSQSSELLSEAKKLNDSQAPK; Engineered FcRn binding polypeptide)”, the Kd by setting is: (pH 6.0, read-out: KD pH 6.0) 2 nM; (pH 7.4, read-out: KD pH 7.4) 3.4 nM.

Consider “Z13628: FcRn binding Z variant from the maturated library (VDAKYAKELNTAAHEIRWLPNLTFDQRVAFIHKLKDDPSQSSELLSEAKKLNDSQAPK; Engineered FcRn binding polypeptide)”, for which the Kd runs as follows: (pH 6.0, read-out: KD pH 6.0) 1.3 nM; (pH 7.4, read-out: KD pH 7.4) 5.5 nM.
